Reference: publication PMC4336329 (PLoS ONE, 2015)
Out of some 310,000 compounds screened, about 14,000 (4.5%) showed an effect of 50% or more. The effect is printed as a negative number. The list shows a part of the results.

Each compound was assayed against human ether-à-go-go-related gene (hERG) potassium channel (human, UniProt Q12809) (assay: primary screen, population patch clamp on CHO cells stably expressing hERG).
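Further: peak tail current of the secondary pulse compared with the same well before compound.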

Sequence of human ether-à-go-go-related gene (hERG) potassium channel (Q12809 whole entry, looked up): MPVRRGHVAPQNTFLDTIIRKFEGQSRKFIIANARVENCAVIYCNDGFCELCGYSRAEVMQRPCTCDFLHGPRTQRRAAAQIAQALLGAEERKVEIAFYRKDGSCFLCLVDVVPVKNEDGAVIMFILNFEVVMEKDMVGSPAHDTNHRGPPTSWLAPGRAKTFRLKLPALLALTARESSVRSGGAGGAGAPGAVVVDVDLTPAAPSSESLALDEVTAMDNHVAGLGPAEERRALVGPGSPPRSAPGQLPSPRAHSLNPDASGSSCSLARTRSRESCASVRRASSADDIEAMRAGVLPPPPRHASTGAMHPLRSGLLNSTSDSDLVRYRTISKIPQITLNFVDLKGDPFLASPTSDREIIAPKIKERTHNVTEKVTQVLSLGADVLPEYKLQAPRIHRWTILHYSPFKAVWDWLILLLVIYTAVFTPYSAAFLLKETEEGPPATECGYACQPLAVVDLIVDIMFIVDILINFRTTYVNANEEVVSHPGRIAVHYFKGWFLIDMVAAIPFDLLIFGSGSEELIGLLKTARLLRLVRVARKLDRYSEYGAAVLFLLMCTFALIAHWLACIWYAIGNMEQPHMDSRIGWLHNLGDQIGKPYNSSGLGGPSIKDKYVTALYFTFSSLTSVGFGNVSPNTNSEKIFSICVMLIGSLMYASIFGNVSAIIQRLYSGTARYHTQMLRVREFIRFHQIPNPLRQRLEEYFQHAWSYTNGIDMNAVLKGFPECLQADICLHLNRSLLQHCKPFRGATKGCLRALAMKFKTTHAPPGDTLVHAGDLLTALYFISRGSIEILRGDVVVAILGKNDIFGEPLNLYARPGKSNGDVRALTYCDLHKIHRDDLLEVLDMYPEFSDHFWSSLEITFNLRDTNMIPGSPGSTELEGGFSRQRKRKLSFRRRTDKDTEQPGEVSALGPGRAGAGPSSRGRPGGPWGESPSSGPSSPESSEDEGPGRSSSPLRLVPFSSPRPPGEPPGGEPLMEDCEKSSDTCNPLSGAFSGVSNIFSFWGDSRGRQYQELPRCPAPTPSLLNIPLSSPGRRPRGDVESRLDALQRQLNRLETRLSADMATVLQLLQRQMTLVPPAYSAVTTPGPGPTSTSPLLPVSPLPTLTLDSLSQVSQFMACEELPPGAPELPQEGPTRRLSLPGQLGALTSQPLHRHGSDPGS

Compound	hERG current change (%, negative = inhibition) at 10uM
CCOC(=O)c1sc(=NC(=O)c2cccc(C)c2)n(C)c1C	8.38%
O=C(Nc1ccc(-c2csnn2)cc1)C1CC1	-1.71%
O=C(Nc1ccc(N2CCCCCC2)cc1)c1cccc(S(=O)(=O)N2CCOCC2)c1	-18%
COc1ccccc1NC(=O)Nc1nc(CC(=O)N2CCN(c3ccccc3F)CC2)cs1	17%
O=C(c1cccs1)N1CCn2c1nc1ccccc12	-25.5%
CC(NC(=O)c1cc(-c2ccccc2)on1)c1ccccc1 (stereo not shown)	6.57%
c1ccc(N2CCCCC2)c(Nc2nc3ccccc3n3cnnc23)c1	9.33%
CCOc1ccc(-c2nc(CSCC(=O)NC3CC3)c(C)o2)cc1	12.8%
COc1ccc(NC(=O)CSc2nc3nc(C)cc(C)n3n2)cc1	-11.2%
COc1cc(C(=O)Nc2ccccc2N2CCOCC2)ccc1OCC(=O)N1CCOCC1	7.84%
Cc1[nH]nc2c1C(c1cnn(C)c1)C(C#N)=C(N)O2 (stereo not shown)	-7.8%
COc1ccc(SCCN2CC[C@@H](C(C)(C)C)CCC2=O)cc1	-25.7%
O=C(COc1ncnc2scc(-c3ccccc3)c12)NCCN1C(=O)CSC1=O	2.57%
CCOC(=O)C1CCCN(C(=O)c2cccs2)C1 (stereo not shown)	17.3%
O=C(Nc1ccccc1)c1ccccc1N=Cc1cccc(O)c1	18.8%
c1cc(CNCCCN2CCOCC2)ccn1	9.09%
O=C(COC(=O)c1ccccc1)c1ccc(Br)cc1	18%
CCOC(=O)C1(CCOc2ccccc2)CCN(C2Cc3ccccc3C2)CC1	-53.4%
O=C(NCc1cccs1)c1cc(-c2ccccc2)nn1CC1CC(c2cccnc2)=NO1 (stereo not shown)	-51.8%
CC1=C(C(=O)OC(C)C)C(c2cccs2)NC(=O)N1 (stereo not shown)	19%

Compound	hERG current change (%, negative = inhibition) at 10uM
CC(CC(=O)N1CCc2ccccc21)c1ccccc1 (stereo not shown)	-27.3%
CC(C(=O)Nc1sc2c(c1C(=O)NCC1CCCO1)CCC2)N1C(=O)c2ccccc2C1=O (stereo not shown)	-14.1%
COC(=O)c1ccc(C(=O)OC)c(NC(=S)N2CCCC(CO)C2)c1 (stereo not shown)	6.27%
CC(NS(C)(=O)=O)C(c1cccs1)N1CCN(c2ccccc2)CC1 (stereo not shown)	-12.7%
COc1ccc(NC(=O)COC(=O)c2ccccc2SCC(=O)N2CCCC2)cc1	-53.9%
CCOc1ccc(NC(=O)c2nccnc2CO)cc1	-10.2%
Cc1nnc(SCc2nnc(-c3cccs3)o2)n1C1CCCCC1	11.5%
COc1ccccc1/C=C1\SC(=O)N(CCC(=O)NNC(=O)c2ccccc2Cl)C1=O	8.9%
Cc1cccnc1NC(=O)c1ccc(S(=O)(=O)N2CCCCCC2)cc1	2.68%
C=CCNC(=O)c1ccccc1NC(=O)c1ccccc1C	-1.68%
CCOC(=O)c1ccccc1C(=O)OCC	0.0515%
CSc1nnc(NC(=O)c2nc(S(=O)(=O)Cc3ccccc3)ncc2Cl)s1	0.719%
CN(CC(=O)Nc1ccc(F)c(F)c1F)C(=O)C1=NN(c2ccccc2)C(=O)CC1	5.7%
O=C(O)c1cccc(NC(=O)c2cccc(S(=O)(=O)N3CCc4ccccc43)c2)c1	11%
CN1CCc2c(sc3nc(NCCO)n(-c4cccc(Cl)c4)c(=O)c23)C1	0.784%
CCC1C2CC3C4N(C)c5ccccc5C45CC(C2C5O)N3[C@@H]1O (stereo partly shown)	-28.5%
c1ccc(-c2noc(C34CC5CC(CC(C5)C3)C4)n2)cc1	14.7%
COCCNC(=O)CN(C(=O)c1ccc(N2CCCC2)nc1)c1ccc(Cl)cc1	2.85%
O=C(O)c1nn2c(c1Br)NC(c1ccccc1)CC2C(F)(F)F (stereo not shown)	12.2%
Cc1ccc(-n2ncc3c(NCc4ccccn4)ncnc32)c(C)c1	-7.46%

Compound	hERG current change (%, negative = inhibition) at 10uM
Cc1cc2c(cc1S(=O)(=O)NC1CCCCC1C)OCC(=O)N2 (stereo not shown)	-28.1%
Cc1cc(-c2nnc(CSc3nnc(NC(=O)c4ccc(C(C)(C)C)cc4)s3)o2)ccc1[N+](=O)[O-]	4.92%
Cc1ccc(C2=NCCn3nc4cc([N+](=O)[O-])ccc4c32)cc1	8.51%
O=C(NCc1cn2ccsc2n1)Nc1ccc(Cl)cc1	-1.56%
Cc1cc([N+](=O)[O-])nn1CC(=O)NCc1ccccc1	24.2%
O=C(Nc1ccc(NC(=O)C2CCCCC2)nc1)c1ccco1	0.412%
Cc1cccc(-c2noc(CCC(=O)Nc3ccccc3)n2)c1	-4.5%
Cc1ccc(CNC(=O)C2CCN(S(=O)(=O)c3cccnc3)CC2)cc1	-1.14%
Cc1ccc(-n2c(C)cc(C=C(C#N)C#N)c2C)cc1	4.75%
O=C(CCNS(=O)(=O)c1ccccc1C(F)(F)F)NCc1ccc2c(c1)OCO2	-14.5%
Oc1ccccc1C=Nc1cccc2ccccc12	5.3%
COc1cccc(C(=O)Nc2nnc(S(=O)(=O)N3CCCCC3)s2)c1	4.03%
CCC(=O)Nc1c(C)cc(C)cc1Cl	6.01%
CCOc1ccccc1N1CCN(C(=O)CCCc2nc3ccccc3s2)CC1	-17.1%
CCCCC1(C(=O)OC)NC(c2ccc(O)cc2)C2C(=O)N(c3ccccc3)C(=O)C21 (stereo not shown)	2.03%
O=C(C[n+]1ccsc1)c1ccccc1.[Br-]	6.28%
Cc1c(NC(=O)CN2CCN(C(c3ccccc3)c3ccccc3)CC2)c(=O)n(-c2ccccc2)n1C	-6.75%
N#Cc1ccsc1NC(=O)CN1C(=O)NC2(CCCCC2)C1=O	4.69%
